Measurements from the supplement of paper PMC9151546.
Single values are uncertain, as repeats are few or missing.

Tests used:
[1] = tested on: CHO-K1; assay: hypodiploid nuclei frequency (% of nucleated events); higher = more hypodiploid events (aneugenic)
Protocol: (§1)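 Flow-cytometric in vitro micronucleus assay (Litron MicroFlow) in CHO-K1 cells in 96-well plates, 19 concentrations (4.5-200 µM, n=1 per concentration). Without S9, cells were exposed for 24 h and sampled at 48 h. With Aroclor 1254-induced rat liver S9, cells were exposed for 3-4 h and sampled at 27-28 h. Read-outs are %MN and %hypodiploid nuclei relative to nucleated events, and relative survival as the nuclei-to-bead ratio versus the 1% DMSO vehicle control (x100).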

[2] = tested on: CHO-K1; assay: micronucleus frequency (% of nucleated events); higher = more micronuclei (genotoxic)
[3] = tested on: CHO-K1; assay: relative survival (nuclei to bead ratio vs DMSO control) (% of vehicle control); higher = more surviving cells
Protocol: as §1
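For hypodiploid nuclei frequency (% of nucleated events) in this document: hypodiploid nuclei gated on a flow cytometer with 488 nm excitation after SYTOX Green staining, cultures at 37 °C, positive controls vinblastine without S9 and cyclophosphamide with S9.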
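For micronucleus frequency (% of nucleated events) in this document: cells lysed with nuclei stained by SYTOX Green, then micronucleus-gated events counted against nucleated events by flow cytometry with 488 nm excitation.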
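For relative survival (nuclei to bead ratio vs DMSO control) in this document: Lysed-cell nuclei stained with SYTOX Green and counted against counting beads by flow cytometry at 488 nm excitation, with vinblastine (no S9) and cyclophosphamide (plus S9) as positive controls.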

Oc1cccc2cccnc12 [8-Hydroxyquinoline]
Settings | hypodiploid nuclei frequency, [1] [%] | micronucleus frequency, [2] [%] | relative survival, [3]
concentration: 4.5 (µM), S9 metabolic activation: with S9, exposure time: 3-4 hours | 0.32 | 1.56 | 67.6
concentration: 4.5 (µM), S9 metabolic activation: without S9, exposure time: 24 hours | 0.86 | 1.56 | 108
concentration: 5.63 (µM), S9 metabolic activation: with S9, exposure time: 3-4 hours | 0.26 | 2.1 | 82.7
concentration: 5.63 (µM), S9 metabolic activation: without S9, exposure time: 24 hours | 0.92 | 1.82 | 71
concentration: 7.04 (µM), S9 metabolic activation: with S9, exposure time: 3-4 hours | 0.26 | 1.58 | 77.3
concentration: 7.04 (µM), S9 metabolic activation: without S9, exposure time: 24 hours | 0.74 | 2.06 | 65.4
concentration: 8.8 (µM), S9 metabolic activation: with S9, exposure time: 3-4 hours | 0.22 | 1.48 | 82
concentration: 8.8 (µM), S9 metabolic activation: without S9, exposure time: 24 hours | 0.7 | 1.9 | 80.2
concentration: 11 (µM), S9 metabolic activation: with S9, exposure time: 3-4 hours | 0.18 | 1.62 | 82.8
concentration: 11 (µM), S9 metabolic activation: without S9, exposure time: 24 hours | 0.76 | 2.44 | 54.6
concentration: 13.7 (µM), S9 metabolic activation: with S9, exposure time: 3-4 hours | 0.34 | 2.22 | 102
concentration: 13.7 (µM), S9 metabolic activation: without S9, exposure time: 24 hours | 0.51 | 1.69 | 46.8
concentration: 17.2 (µM), S9 metabolic activation: with S9, exposure time: 3-4 hours | 0.38 | 2.2 | 92.2
concentration: 17.2 (µM), S9 metabolic activation: without S9, exposure time: 24 hours | 0.62 | 1.45 | 42.8
concentration: 21.5 (µM), S9 metabolic activation: with S9, exposure time: 3-4 hours | 0.38 | 2.56 | 86.5
concentration: 21.5 (µM), S9 metabolic activation: without S9, exposure time: 24 hours | – | – | 38.6
concentration: 26.8 (µM), S9 metabolic activation: with S9, exposure time: 3-4 hours | 0.36 | 3.16 | 44.2
concentration: 26.8 (µM), S9 metabolic activation: without S9, exposure time: 24 hours | 0.56 | 2.58 | 46.1
concentration: 33.6 (µM), S9 metabolic activation: with S9, exposure time: 3-4 hours | – | – | 19.8
concentration: 33.6 (µM), S9 metabolic activation: without S9, exposure time: 24 hours | – | – | 39
concentration: 41.9 (µM), S9 metabolic activation: with S9, exposure time: 3-4 hours | – | – | 5.74
concentration: 41.9 (µM), S9 metabolic activation: without S9, exposure time: 24 hours | 0.52 | 3.18 | 48
concentration: 52.4 (µM), S9 metabolic activation: with S9, exposure time: 3-4 hours | – | – | 1.18
concentration: 52.4 (µM), S9 metabolic activation: without S9, exposure time: 24 hours | 0.24 | 3.18 | 47.9
concentration: 65.5 (µM), S9 metabolic activation: without S9, exposure time: 24 hours | 0.42 | 2.93 | 42.1
concentration: 81.9 (µM), S9 metabolic activation: without S9, exposure time: 24 hours | 0.48 | 2.16 | 50.4
concentration: 102 (µM), S9 metabolic activation: without S9, exposure time: 24 hours | 0.62 | 3.92 | 58.1
concentration: 128 (µM), S9 metabolic activation: without S9, exposure time: 24 hours | 0.68 | 4.54 | 55
concentration: 160 (µM), S9 metabolic activation: without S9, exposure time: 24 hours | 0.53 | 3.54 | 43
concentration: 200 (µM), S9 metabolic activation: without S9, exposure time: 24 hours | 0.4 | 2.27 | 44.9

C#C[C@]1(O)CC[C@H]2[C@@H]3CCc4cc(O)ccc4[C@H]3CC[C@@]21C [17alpha-Ethinylestradiol]
Settings | hypodiploid nuclei frequency, [1] [%] | micronucleus frequency, [2] [%] | relative survival, [3]
concentration: 4.5 (µM), S9 metabolic activation: with S9, exposure time: 3-4 hours | 0.36 | 1.86 | 126
concentration: 4.5 (µM), S9 metabolic activation: without S9, exposure time: 24 hours | 2.98 | 3.3 | 95.3
concentration: 5.63 (µM), S9 metabolic activation: with S9, exposure time: 3-4 hours | 0.34 | 1.9 | 131
concentration: 5.63 (µM), S9 metabolic activation: without S9, exposure time: 24 hours | 5.72 | 5.44 | 95.3
concentration: 7.04 (µM), S9 metabolic activation: with S9, exposure time: 3-4 hours | 0.34 | 1.56 | 119
concentration: 7.04 (µM), S9 metabolic activation: without S9, exposure time: 24 hours | 9.86 | 7.18 | 78.3
concentration: 8.8 (µM), S9 metabolic activation: with S9, exposure time: 3-4 hours | 0.36 | 1.24 | 121
concentration: 8.8 (µM), S9 metabolic activation: without S9, exposure time: 24 hours | 15.8 | 9.58 | 79.2
concentration: 11 (µM), S9 metabolic activation: with S9, exposure time: 3-4 hours | 0.24 | 1.7 | 112
concentration: 11 (µM), S9 metabolic activation: without S9, exposure time: 24 hours | 20.5 | 13.4 | 71.6
concentration: 13.7 (µM), S9 metabolic activation: with S9, exposure time: 3-4 hours | 0.28 | 1.94 | 128
concentration: 13.7 (µM), S9 metabolic activation: without S9, exposure time: 24 hours | 29 | 18.2 | 67.7
concentration: 17.2 (µM), S9 metabolic activation: with S9, exposure time: 3-4 hours | 0.2 | 1.6 | 121
concentration: 17.2 (µM), S9 metabolic activation: without S9, exposure time: 24 hours | 32.5 | 25.6 | 52.5
concentration: 21.5 (µM), S9 metabolic activation: with S9, exposure time: 3-4 hours | 0.38 | 1.66 | 116
concentration: 21.5 (µM), S9 metabolic activation: without S9, exposure time: 24 hours | 28.4 | 29 | 43.7
concentration: 26.8 (µM), S9 metabolic activation: with S9, exposure time: 3-4 hours | 0.48 | 1.7 | 136
concentration: 26.8 (µM), S9 metabolic activation: without S9, exposure time: 24 hours | – | – | 32.8
concentration: 33.6 (µM), S9 metabolic activation: with S9, exposure time: 3-4 hours | 0.48 | 1.74 | 124
concentration: 33.6 (µM), S9 metabolic activation: without S9, exposure time: 24 hours | – | – | 25.1
concentration: 41.9 (µM), S9 metabolic activation: with S9, exposure time: 3-4 hours | 0.54 | 2.7 | 133
concentration: 41.9 (µM), S9 metabolic activation: without S9, exposure time: 24 hours | – | – | 20.2
concentration: 52.4 (µM), S9 metabolic activation: with S9, exposure time: 3-4 hours | 0.42 | 1.42 | 106
concentration: 52.4 (µM), S9 metabolic activation: without S9, exposure time: 24 hours | – | – | 26.2
concentration: 65.5 (µM), S9 metabolic activation: with S9, exposure time: 3-4 hours | 0.2 | 2.08 | 100
concentration: 65.5 (µM), S9 metabolic activation: without S9, exposure time: 24 hours | – | – | 24.9
concentration: 81.9 (µM), S9 metabolic activation: with S9, exposure time: 3-4 hours | 0.32 | 3.32 | 79.1
concentration: 81.9 (µM), S9 metabolic activation: without S9, exposure time: 24 hours | – | – | 28.4
concentration: 102 (µM), S9 metabolic activation: with S9, exposure time: 3-4 hours | 0.37 | 7.65 | 53.4
concentration: 102 (µM), S9 metabolic activation: without S9, exposure time: 24 hours | – | – | 25.5
concentration: 128 (µM), S9 metabolic activation: with S9, exposure time: 3-4 hours | – | – | 24.9
concentration: 128 (µM), S9 metabolic activation: without S9, exposure time: 24 hours | – | – | 31.2
concentration: 160 (µM), S9 metabolic activation: with S9, exposure time: 3-4 hours | – | – | 3.57
concentration: 160 (µM), S9 metabolic activation: without S9, exposure time: 24 hours | – | – | 17.1
concentration: 200 (µM), S9 metabolic activation: without S9, exposure time: 24 hours | – | – | 0.05
